Where “and” joins values, the source holds several entries; their conditions need not be identical. Identical values can stand only once. Like-named read-outs stand apart in the source and are kept apart here.
What was measured:
[1] = system: T. gondii RHΔΔ TgPheRS[L497V]; experiment: Tachyzoite lytic assay, L497V mutant; type: cell-based, Toxoplasma gondii; settings: for % Parasite Growth: L497V; for EC50: Toxoplasma gondii
Protocol: In vitro cultures of HFF cells containing mature vacuoles were scraped, passaged through 23 g blunt end needles, and filtered using 3 micron filters. Purified parasites were resuspended in 350 μL of cytomix plus[49] and combined in a BTX 4 mm gap cuvette with 30 μL of PCR amplified templates corresponding to mutations of interest and 10 μg of pSAG1:Cas9-GFP U6:sgTgPheRS^[mut] (in 20 μL, 400 μL total volume, see Supplementary Data 1 for sgRNA sequences) prior to electroporation using a BTX ETM 830 electroporator. Amplified templates for TgPheRS mutations were generated from gBlocks (Integrated DNA Technologies, Coralville, IA, USA) that contain a BclI restriction site that replaces the PAM sequence to protect the repair template from being cut by Cas9. At 16 h post-transfection, transgenic parasites expressing pSAG1:Cas9-GFP were sorted on a Sony SH800 FACS sorter directly into 96-well plates. Single clones containing TgPheRS^[mut] were identified by amplifying a ~500 bp PCR fragment around introduced mutation followed by digestion using BclI (New England Biolabs) BclI sensitive clones were expanded and the locus was Sanger sequenced to verify incorporation of each independent mutation. To generate firefly luciferase (FLuc) expressing strains, freshly harvested parasites were combined with 20 μg of pTUB-FLUC DHFR flox plasmid and 10 μg of pSAG1:Cas9-GFP U6:sgUPRT[50] (in 50 μL cytomix plus) and transformed by electroporation as described above. Parasites were allowed to recover overnight followed by sequential selection with pyrimethamine (1.0 μM) and 5-flurodeoxyuracil (FUDR, 10 μM), as described previously. Stable clones were isolated by limiting dilution and a clone from each genetic background selected based on high luciferase activity (Table 1).
Parasite growth on HFF monolayers was monitored using a 96-well plate-based lytic assay modified from a previously described protocol. […]. Freshly harvested parasites (7.5 × 10^4 /well) were added to each well (in 100uL volume) to reach the final concentration range (10 μM to 0.0005 μM, 200 μL/well, 0.1% DMSO). Plates were incubated for 72 h at 37 °C then culture medium was aspirated and monolayers were fixed with 100% ethanol (ETOH) for 5 min at room temperature (RT). After rinsing with water, wells were stained with 0.1% crystal violet solution for 10 min at RT. Plates were rinsed with water, air dried, and absorption quantified on the Cytation 3 multi-mode imager at 570 nm wavelength. % parasite growth was calculated as 100−[(OD value for infected cultures at each concentration of compound/average OD value for no compound and no parasite infection) × 100]. EC50 values were calculated based on the mean of three biological replicates with each replicate containing two technical replicates.

TgPheRS[L497V] = biological target: T1, TgPheRS[L497V] (Toxoplasma gondii, UniProt A0A125YPN6, L497V); experiment: biochemical; settings: for enzyme assay readout (raw): L497V
T1 sequence (A0A125YPN6 1-525 L497V): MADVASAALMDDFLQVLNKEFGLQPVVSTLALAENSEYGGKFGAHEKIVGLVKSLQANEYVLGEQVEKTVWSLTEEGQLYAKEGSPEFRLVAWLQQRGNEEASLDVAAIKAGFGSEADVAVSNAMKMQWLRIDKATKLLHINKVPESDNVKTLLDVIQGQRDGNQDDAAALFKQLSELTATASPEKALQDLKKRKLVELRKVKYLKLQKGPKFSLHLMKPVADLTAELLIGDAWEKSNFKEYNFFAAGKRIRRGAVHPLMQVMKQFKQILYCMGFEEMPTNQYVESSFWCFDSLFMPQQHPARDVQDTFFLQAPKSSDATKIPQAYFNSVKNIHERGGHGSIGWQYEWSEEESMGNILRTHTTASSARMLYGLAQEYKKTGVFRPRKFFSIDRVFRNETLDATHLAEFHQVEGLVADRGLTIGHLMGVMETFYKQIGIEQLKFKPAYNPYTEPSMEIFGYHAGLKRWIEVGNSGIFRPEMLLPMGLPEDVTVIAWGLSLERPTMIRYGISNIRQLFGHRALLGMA
T1 sequence (S8EZ50 1-675 partner): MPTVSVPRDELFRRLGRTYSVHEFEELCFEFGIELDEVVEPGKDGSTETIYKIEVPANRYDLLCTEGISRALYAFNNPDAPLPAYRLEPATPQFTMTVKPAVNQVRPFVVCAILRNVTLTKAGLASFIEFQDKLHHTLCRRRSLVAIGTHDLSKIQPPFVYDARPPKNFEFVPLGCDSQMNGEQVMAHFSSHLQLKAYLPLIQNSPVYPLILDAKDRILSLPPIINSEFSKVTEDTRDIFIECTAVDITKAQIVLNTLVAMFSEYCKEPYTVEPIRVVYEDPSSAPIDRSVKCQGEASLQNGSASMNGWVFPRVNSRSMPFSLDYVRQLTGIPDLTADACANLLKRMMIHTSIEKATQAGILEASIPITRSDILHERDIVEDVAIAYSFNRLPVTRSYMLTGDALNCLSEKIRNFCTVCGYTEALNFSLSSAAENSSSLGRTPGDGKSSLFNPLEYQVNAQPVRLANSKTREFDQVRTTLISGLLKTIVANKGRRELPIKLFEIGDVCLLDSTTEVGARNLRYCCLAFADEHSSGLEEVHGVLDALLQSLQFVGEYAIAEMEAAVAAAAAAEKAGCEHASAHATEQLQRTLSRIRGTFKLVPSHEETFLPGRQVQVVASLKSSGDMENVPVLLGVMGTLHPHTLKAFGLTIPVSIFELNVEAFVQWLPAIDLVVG
Protocol: See Table S3 for primer information.
For purification of both wild type and mutant TgPheRS, E.coli cultures were grown at 37 °C to an OD600 of 0.6–0.8. recombinant protein expression was induced by the addition of 0.6 mM isopropyl β-d-1-thiogalactopyranoside (IPTG) at 18 °C. After 18–20 h post-induction, the cells were harvested by centrifugation at 5,000 g for 20 min, resuspended in binding buffer (50 mM Tris–HCl (pH 8), 200 mM NaCl, 4 mM β-mercaptoethanol (βMe), 10% (v/v) glycerol, 1 mM phenylmethylsulfonyl fluoride (PMSF) and 0.1 mg/mL lysozyme), and lysed using sonication. The lysed cells were then centrifuged at 20,000 g for 45 min and the cleared soluble protein lysate was loaded on a prepacked Ni-NTA column (GE Healthcare). Proteins which bound the Ni-NTA were washed with 20 column volumes of binding buffer supplemented with 20 mM imidazole to remove impurities. […] . The fractions which contained purified protein were pooled together and concentrated using 30-kDa cut-off centrifugal devices (Millipore) followed by size exclusion chromatography using the GE HiLoad 60/600 Superdex column in a buffer containing 50 mM HEPES (pH 8), 200 mM NaCl, 4 mM β-mercaptoethanol, 1 mM MgCl2. Purity of the eluted fractions was verified on a SDS PAGE gel, fractions pooled together and stored at −80 °C until further use.

SMILES: COc1ccc(NC(=O)N2CCCCN3[C@H](CN(C)C)[C@H](c4ccc(C#Cc5ccccc5)cc4)[C@@H]3C2)cc1 [BRD7929]
- % Parasite Growth ([1]; 0.00152416 uM): 64.58% and 66.7%
- % Parasite Growth ([1]; 0.00457247 uM): 67.68% and 40.9%
- % Parasite Growth ([1]; 0.01371742 uM): 64.27% and 35.67%
- % Parasite Growth ([1]; 0.04115226 uM): 67.06% and 53.63%
- % Parasite Growth ([1]; 0.12345679 uM): 74.64% and 51.36%
- % Parasite Growth ([1]; 0.37037037 uM): 55% and 63.39%
- % Parasite Growth ([1]; 10 uM): 12.93% and 9.87%
- EC50 ([1]; read-out: EC50 (growth restriction)): 1420 nM
- EC50 ([1]; read-out: EC50, L497V): 1560 nM
- IC50 (TgPheRS[L497V]): 2110 nM
- enzyme assay readout (raw) (TgPheRS[L497V]; 0.000100 μM): 0.5775 and 0.5838 and 0.5411
- enzyme assay readout (raw) (TgPheRS[L497V]; 0.001000 μM): 0.5271 and 0.5991 and 0.5505
- enzyme assay readout (raw) (TgPheRS[L497V]; 0.010000 μM): 0.5348 and 0.5970 and 0.52
- enzyme assay readout (raw) (TgPheRS[L497V]; 0.100000 μM): 0.5428 and 0.5332 and 0.5286
- enzyme assay readout (raw) (TgPheRS[L497V]; 1.000000 μM): 0.4659 and 0.4572 and 0.4589
- enzyme assay readout (raw) (TgPheRS[L497V]; 10.000000 μM): 0.4155 and 0.4208 and 0.4102
- enzyme assay readout (raw) (TgPheRS[L497V]; 100.000000 μM): 0.3116 and 0.3383 and 0.3149

Source: publication PMC8786932, “Bicyclic azetidines target acute and chronic stages of Toxoplasma gondii by inhibiting parasite phenylalanyl t-RNA synthetase” (Nature Communications, 2022)
